# Values joined by “and” are separate entries in the source; they are usually repeats but may differ in a detail not shown here. Equal values may be shown once. Among all 390,000 compounds or so, about 930 (0.24%) were called active. The shares of active, inactive and inconclusive entries below differ from those in the screen. The call rests on the fitted dose curve; in most records, active means well fitted activation curve with a large enough effect; inconclusive means small, poorly fitted or top-dose-only effect; inactive means no such curve, though single readings can be large or run the other way. Potencies of inconclusive entries are doubtful fits and often do not repeat.
# Assay: qHTS for Suppressors of FUS Proteinopathy: Primary screen using FUS-linked yeast assay; further: nearly all actives have a fitted effect of over 55% in size
# Settings: S. cerevisiae FUS-expressing, OD600, 24 h; Potency: growth rescue; series mostly up to 76.6 µM
# In short: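 Toxicity suppression screen in FUS-yeast. Cells induced with 2% galactose, starting OD 0.005, treated 24hr at 30C with compounds at multiple final concentrations; growth by OD600.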
# Potency means the concentration at half of the fitted maximal effect; tags describe the fitted curve by direction and shape.
row,SMILES,Potency
1,O=C(NCc1ccccc1Cl)c1nnc(CS(=O)(=O)c2ccccc2)o1,"inconclusive: 28.2 µM [activator, single point]"
2,CCc1ccc(-n2c(=O)c3c(C)c(C(=O)N(C)C)sc3n(Cc3cccc(C)c3)c2=O)cc1,inactive
3,Cc1ccc(C)c(N2CCN(C(=O)CCCn3ncn4c(cc5occc54)c3=O)CC2)c1,"inconclusive: 25.1 µM [activator, partial curve, poor fit]"
4,Cc1cccn2c(=O)c(/C=C(\C#N)C(=O)NC3CCS(=O)(=O)C3)c(N3CCC(C)CC3)nc12 (stereo not drawn),"inconclusive: 17.8 µM [activator, partial curve, poor fit]"
5,CC(=O)c1cccc(NC(=O)C(Cc2ccccc2)NS(=O)(=O)c2ccc(Br)s2)c1 (stereo not drawn),inactive
6,O=C(Cn1nc(C(=O)O)c2ccccc2c1=O)c1c[nH]c2ccccc12,"inconclusive: 35.5 µM [activator, partial curve, poor fit]"
7,COc1ccc(Cn2cc(C(=O)c3ccc(OC)cc3)c(=O)c3cc4c(cc32)OCCO4)cc1,"inconclusive: 28.2 µM [activator, single point]"
8,CCOC(=O)Cn1ccc(-c2ccccc2)c(C#N)c1=O,"inconclusive: 35.5 µM [activator, single point]"
9,CCC(=O)N1CCc2cc(Br)cc(S(=O)(=O)N3CCCC(C(=O)NCc4cccc(OC)c4)C3)c21 (stereo not drawn),"inconclusive: 4.47 µM [activator, full curve]"
10,Cc1nc2c(-c3ccccc3)c(C)nn2c(C)c1CCC(=O)N1CCN(c2ccccc2)CC1,inactive
11,Cn1nc(C(=O)N2CCN(c3cccc(Cl)c3)CC2)c2c1-c1ccccc1S(=O)(=O)C2,"inconclusive: 50.1 µM [activator, single point] and inconclusive: 39.8 µM [activator, single point]"
12,CCc1nc(SCC(=O)c2ccccc2)c2c(=O)n(C)c(=O)n(C)c2n1,inactive
13,CCOc1ccc(/C(O)=C2/C(=O)C(=O)N(c3ncccn3)C2c2ccc(C)cc2)cc1 (stereo not drawn),"inconclusive: 50.1 µM [activator, single point]"
14,CCOC(=O)C1CCN(C(=O)c2ccc3c(c2)sc2nc(-c4ccccc4)cn23)CC1,"inconclusive: 28.2 µM [activator, partial curve]"
15,COC(=O)[C@]12C[C@H](CC(=O)NCc3ccc(OC)c(OC)c3)C(=O)N(Cc3ccco3)C1=C[C@H](C(C)C)O[C@@H]2C1CC1,"inconclusive: 31.6 µM [activator, single point]"
16,Cc1ccc(S(=O)(=O)NC(=O)Cn2nnc(-c3ccccc3)c2COc2ccc3ccccc3c2)cc1,"inconclusive: 44.7 µM [activator, partial curve, poor fit]"
17,CC(C)(C)OC(=O)NCCCC[C@@H](C(=O)NCCCCCCCCCCC(=O)N1CCN(C(=O)OC(C)(C)C)CC1)n1cc(CCO)nn1,"inconclusive: 17.8 µM [activator, partial curve]"
18,CC1Cc2cc(S(=O)(=O)CCC(=O)Nc3ccc(OC(F)(F)F)cc3)ccc2N1C(=O)C1CC1 (stereo not drawn),inactive
19,CCOCCCn1c(SCC(=O)Nc2ccccc2OC)nc2c(oc3ccccc32)c1=O,"inconclusive: 15.8 µM [activator, single point]"
20,COC(=O)C1=C(C)N(Cc2ccccc2)C(=NCc2cccc(C(F)(F)F)c2)N[C@H]1c1cccc(C(F)(F)F)c1,"inconclusive: 31.6 µM [activator, single point]"

row,SMILES,Potency
1,COc1cc2c(cc1OC)C(c1ccc([N+](=O)[O-])cc1)N(C(C)=O)CC2 (stereo not drawn),inactive
2,CN(C(=O)c1cccc(NC(=O)Cc2ccc(NC(=O)C3CCCN(C(=O)C4CCCC4)C3)cc2)c1)C1CCCC1 (stereo not drawn),"inconclusive: 25.1 µM [activator, single point]"
3,CC1(C(=O)NCc2ccccc2)Cc2c(-c3cccc(C(F)(F)F)c3)ccnc2O1 (stereo not drawn),"inconclusive: 20 µM [activator, partial curve]"
4,COc1cccc(C2=CC(=O)C[C@H](c3ccc(F)cc3)C2)c1,inactive
5,CCCCCN(C(=O)CCC(=O)OCC(=O)N1CCCC(C)C1)c1c(N)n(CCCC)c(=O)[nH]c1=O (stereo not drawn),"inconclusive: 3.98 µM [activator, full curve, poor fit]"
6,CCn1c(COc2ccc(C)cc2)nnc1SCC(=O)Nc1ccccc1-c1ccccc1,"inconclusive: 14.1 µM [activator, partial curve, poor fit]"
7,COc1ccc(CCNC(=O)CSc2cn(CCNC(=O)c3ccc(OC)c(OC)c3)c3ccccc23)cc1OC,"inconclusive: 31.6 µM [activator, single point]"
8,COc1cc(C(=O)NCCSc2c(C)[nH]c3ccccc23)cc(OC)c1OC,inactive
9,CCOC(=O)C1CCCN(C(=O)c2ccc(Cl)c(S(=O)(=O)N3CCc4ccccc43)c2)C1 (stereo not drawn),"inconclusive: 39.8 µM [activator, single point]"
10,COc1ccccc1OCC(=O)Nc1cc(S(=O)(=O)N2CCOCC2)ccc1N1CCCCC1,"inconclusive: 25.1 µM [activator, partial curve, poor fit]"
11,C=CCN(c1ccc(Cl)cc1)S(=O)(=O)c1cccc(C(=O)OCC(=O)N(C)C)c1,"inconclusive: 25.1 µM [activator, single point]"
12,COc1ccc(CCNC(=O)c2cc([C@@H](NC(=O)OC(C)(C)C)C(C)C)sc2N)cc1OC,"inconclusive: 12.6 µM [activator, partial curve]"
13,COc1ccccc1C(=O)N1N=C(c2ccc(NS(C)(=O)=O)cc2)CC1c1cccs1 (stereo not drawn),"inconclusive: 35.5 µM [activator, single point]"
14,O=C(NC1CC(=O)N(c2ccc(Cl)cc2)C1)C1CCCCC1 (stereo not drawn),inactive
15,O=C(CSc1ccc(Cl)cc1)NC1=NN(c2ccccc2)C(=O)C1,inactive
16,Cc1ccc(CCNC(=O)CN2N=C(c3ccc(C)cc3)CCC2=O)cc1,inactive
17,CCN(CC)S(=O)(=O)c1ccc(N2CCOCC2)c(NC(=O)C2COc3ccccc3O2)c1 (stereo not drawn),"inconclusive: 39.8 µM [activator, partial curve, poor fit]"
18,COc1ccc(N2C(=O)CCSC23C(=O)N(Cc2ccc(F)cc2)c2ccccc23)cc1Cl (stereo not drawn),"inconclusive: 28.2 µM [activator, single point]"
19,COc1ccc(CN2CCN(C(=O)c3ccc(S(=O)(=O)N4CCCCCC4)cc3)CC2)cc1F,inactive
20,CC1CCN(C(=O)c2ccc(NC(=O)c3nsc4ccccc34)cc2)CC1,"inconclusive: 25.1 µM [activator, single point]"

row,SMILES,Potency
1,CCOC(=O)N1CCC(n2c(SCC(=O)Nc3nccs3)nc3ccsc3c2=O)CC1,"inconclusive: 8.91 µM [activator, full curve, poor fit]"
2,c1ccc(Cn2nnnc2C(c2cccs2)N2CCc3ccccc3C2)cc1 (stereo not drawn),"inconclusive: 50.1 µM [activator, partial curve, poor fit]"
3,COc1ccc(-c2nc3ccc(C(=O)NCc4ccc(C)cc4)cc3nc2-c2ccc(OC)cc2)cc1,"inconclusive: 35.5 µM [activator, single point]"
4,COc1ccc(C(C(=O)NC2CCCCC2)N(C(=O)Cc2c[nH]c3ccccc23)c2ccccc2C)cc1OC (stereo not drawn),"inconclusive: 11.2 µM [activator, single point]"
5,CCOC(=O)C(CC)Sc1nnc(COc2ccc(C)cc2)n1-c1ccccc1 (stereo not drawn),"inconclusive: 20 µM [activator, partial curve, poor fit]"
6,COc1ccc(N(CC(=O)Nc2cccc(N(C)S(C)(=O)=O)c2)S(=O)(=O)c2ccc(C)cc2)cc1,active: 28.2 µM
7,Cc1ccc(N2CCN(C(=O)c3nn(C)c4c3CS(=O)(=O)c3ccccc3-4)CC2C)cc1 (stereo not drawn),"inconclusive: 14.1 µM [activator, partial curve, poor fit] and inconclusive: 20 µM [activator, partial curve]"
8,Cc1ccc(Cn2cc(CCC(=O)NC3CCCCC3)c3ccccc32)cc1,inactive
9,CC1CCCN(S(=O)(=O)c2ccc(S(=O)(=O)NC(C)c3cccs3)cc2)C1 (stereo not drawn),active: 31.6 µM
10,N#Cc1cccc(OC[C@@H](O)CN2CCC(C(O)(c3ccccc3)c3ccccc3)CC2)c1,inactive
11,O=C(O)c1ccc(Cn2cnc3scc(-c4ccccc4)c3c2=O)cc1,inactive
12,COC(=O)[C@]12C[C@H](CC(=O)NCc3cccc4ccccc34)C(=O)N(Cc3ccc(Cl)cc3Cl)C1=C[C@H](C(C)C)O[C@@H]2C1CC1,"inconclusive: 20 µM [activator, partial curve, poor fit]"
13,CC(c1ccccc1)N1C(=O)c2cccnc2C1=O (stereo not drawn),inactive
14,CN(C(=O)CSc1ncc(C(F)(F)F)cc1Cl)c1c(N)n(Cc2ccccc2)c(=O)[nH]c1=O,"inconclusive: 35.5 µM [activator, single point]"
15,COc1cccc(NC(=O)Cn2c(=O)n(Cc3ccccc3)c(=O)c3c4c(sc32)CN(C(C)=O)CC4)c1,"inconclusive: 31.6 µM [activator, partial curve, poor fit]"
16,N#C/C(=N\Nc1ccc(Cl)cc1)C(N)=S,inactive
17,COc1ccc(S(=O)(=O)N(C)C[C@H]2Oc3c(NC(=O)Nc4c(C)noc4C)cccc3C(=O)N([C@H](C)CO)C[C@@H]2C)cc1,"inconclusive: 17.8 µM [activator, partial curve, poor fit]"
18,O=S(=O)(c1cccc(F)c1)N1CCN(c2ncnc3scc(-c4ccc(F)cc4)c23)CC1,"inconclusive: 12.6 µM [activator, single point]"
